Source: PMC4336329 (PLoS ONE, 2015)
The whole screen tested about 310,000 compounds, of which about 2,200 (0.71%) showed an effect of 50% or more. The effect is printed as a negative number. Some of the results follow.

target: human ether-à-go-go-related gene (hERG) potassium channel (human, UniProt Q12809); assay: primary screen, population patch clamp on CHO cells stably expressing hERG
Sequence (Q12809 whole entry, looked up): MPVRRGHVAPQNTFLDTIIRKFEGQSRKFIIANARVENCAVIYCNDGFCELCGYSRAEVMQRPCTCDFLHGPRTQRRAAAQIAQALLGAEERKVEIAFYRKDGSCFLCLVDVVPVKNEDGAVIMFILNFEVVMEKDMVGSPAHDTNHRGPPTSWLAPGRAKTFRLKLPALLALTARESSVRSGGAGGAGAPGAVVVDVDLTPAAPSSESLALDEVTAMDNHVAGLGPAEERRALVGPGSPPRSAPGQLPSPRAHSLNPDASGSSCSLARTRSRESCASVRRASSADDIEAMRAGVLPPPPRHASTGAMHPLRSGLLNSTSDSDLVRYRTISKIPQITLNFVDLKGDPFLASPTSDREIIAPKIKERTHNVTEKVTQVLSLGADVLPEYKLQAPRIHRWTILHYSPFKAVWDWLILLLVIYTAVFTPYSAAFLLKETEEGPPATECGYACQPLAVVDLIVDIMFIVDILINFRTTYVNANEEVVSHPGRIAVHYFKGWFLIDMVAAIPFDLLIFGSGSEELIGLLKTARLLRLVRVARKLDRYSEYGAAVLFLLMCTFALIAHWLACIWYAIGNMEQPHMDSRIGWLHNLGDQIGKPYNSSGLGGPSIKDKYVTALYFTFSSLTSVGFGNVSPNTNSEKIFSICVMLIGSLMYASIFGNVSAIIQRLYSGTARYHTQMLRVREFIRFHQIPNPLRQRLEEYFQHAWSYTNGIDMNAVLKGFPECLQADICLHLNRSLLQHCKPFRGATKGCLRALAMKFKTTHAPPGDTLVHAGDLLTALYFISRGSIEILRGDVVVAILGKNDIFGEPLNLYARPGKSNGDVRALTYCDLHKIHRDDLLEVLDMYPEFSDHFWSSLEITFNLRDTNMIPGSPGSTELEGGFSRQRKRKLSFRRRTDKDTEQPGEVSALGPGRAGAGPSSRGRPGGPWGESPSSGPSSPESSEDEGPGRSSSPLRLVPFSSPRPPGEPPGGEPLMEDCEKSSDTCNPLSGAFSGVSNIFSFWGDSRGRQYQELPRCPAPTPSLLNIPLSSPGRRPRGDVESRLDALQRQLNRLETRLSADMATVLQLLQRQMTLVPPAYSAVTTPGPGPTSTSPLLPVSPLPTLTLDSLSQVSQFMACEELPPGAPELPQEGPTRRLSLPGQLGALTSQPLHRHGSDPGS

| Structure (SMILES) | hERG current change (%, negative = inhibition) at 1uM [%] |
| --- | --- |
| CC(NC(=O)CN1CCN(c2ncccn2)CC1)c1ccc(F)cc1 (stereo not drawn) | -0.407 |
| CCNC(=O)NC(=O)C(C)SCc1ccccc1C (stereo not drawn) | 18.7 |
| Cc1ccc2ncc(S(=O)(=O)c3ccccc3)c(N3CCCCC3C)c2c1 (stereo not drawn) | 13.3 |
| COc1cc(C(=O)N2CCN(Cc3ccc4c(c3)OCO4)CC2)cc(OC)c1OC.O=C(O)C(=O)O | -7.46 |
| CCOC(=O)Cc1c(C)c2c(C)nn(-c3ccccc3)c2oc1=O | 1.63 |
| O=C(/C=C/c1cccc(Cl)c1)Nc1ncccn1 | 15.3 |
| COc1cc(C(=O)N2c3ccccc3CCC2C)cc(OC)c1OC (stereo not drawn) | 9.99 |
| CCCC(C)NC(=O)CN1C(=O)c2cccc3cccc1c23 (stereo not drawn) | 0.805 |
| CCC1(CC)Cc2ccccc2-c2nc(CN3CCOCC3)[nH]c(=O)c21 | 8.32 |
| COc1ccc(C)cc1-n1nnnc1SCC1CCCO1 (stereo not drawn) | 5.83 |
| Cc1cccc(-c2cccc(NC(=O)C3CCCN(C(=O)c4ocnc4C)C3)c2)c1 (stereo not drawn) | 7.72 |
| Cc1[nH]n(-c2cccc3ccccc23)c(=O)c1/C=N/NC(=O)c1cccc([N+](=O)[O-])c1 | -7.57 |
| COc1cccc(OC)c1C(=O)Nc1ccc(Cc2ccncc2)cc1 | 3 |
| CC(=O)c1cccc(OCc2cc(C(=O)N(C)Cc3ccc(C)o3)no2)c1 | 4.59 |
| O=C(Nc1ccccc1NC(=O)c1ccco1)c1ccco1 | -6.47 |
| Cc1cccc(N(Cc2ccccc2)C(=O)c2ccc(C)c(S(=O)(=O)N3CCOCC3)c2)c1 | 5.49 |
| COC(=O)C1=C(C)NC(=O)CC1c1ccc(F)c(Br)c1 (stereo not drawn) | -1.39 |
| CC(OC(=O)c1ccccc1C(=O)N(C)c1ccccc1)C(=O)Nc1ccc(C(N)=O)cc1 (stereo not drawn) | 16.1 |
| CN(C)S(=O)(=O)Nc1cccc(-c2cn3c(n2)SCC3)c1 | 15.4 |
| Cc1ccc(C(=O)c2oc3ccccc3c2N)cc1 | 0.215 |
| CCN(CC)S(=O)(=O)c1ccc(C(=O)N2CCN=C2SCc2cccnc2)cc1 | 1.98 |
| Cc1ccccc1/C=C/c1nc2ccccc2c(=O)n1CCc1ccccc1 | 10.1 |
| CCc1cc(C(c2ccccn2)N2CCN(C)CC2)c(NC(=O)c2ccccc2)s1 (stereo not drawn) | -1.07 |

| Structure (SMILES) | hERG current change (%, negative = inhibition) at 1uM [%] |
| --- | --- |
| O=c1c2[nH]c3ccc(Cl)cc3c2ncn1CCN1CCCCC1 | -43.9 |
| CN1Cc2cccnc2N(C)Cc2cc(Cl)ccc21 | 0.37 |
| COc1cc2c(cc1OC)CN(C(=O)c1ccco1)CC2 | 11.3 |
| Clc1ccc(C(c2nnnn2C2CCCC2)N2CCSCC2)cc1 (stereo not drawn) | -2.04 |
| CCNc1nc(CC)nc2c1oc1ccccc12.Cl | -4.86 |
| Cn1c(=O)c2c([nH]c(=O)n2C)n(C)c1=O | 18.7 |
| CCOC(=O)CCc1c(C)nc2ncnn2c1C | -3.06 |
| O=[N+]([O-])c1ccc(CN2CCN(c3ncccn3)CC2)cc1 | 5.23 |
| CC1(c2ccc3c(c2)OCCCO3)NC(=O)N(CC(=O)Nc2cccc(C#N)c2)C1=O (stereo not drawn) | 13.2 |
| COc1ccc(F)cc1S(=O)(=O)N1CCN(c2ccccn2)CC1 | 14 |
| CCS(=O)(=O)N1Cc2ccccc2CC1C(=O)Nc1ncc(C)s1 (stereo not drawn) | 7.83 |
| NNC(=S)Nc1cc(S(=O)(=O)N2CCOCC2)ccc1N1CCOCC1 | 7.2 |
| COc1ccc(-n2c(Cc3cccn3C)nnc2SCC(=O)Nc2cccc(F)c2)cc1 | -23.3 |
| Cc1ccc(C=Nc2cccnc2N)cc1 | 18.6 |
| COc1ccc(NC(=O)CCNS(=O)(=O)c2ccc(Cl)c([N+](=O)[O-])c2)cc1S(N)(=O)=O | 13.3 |
| CC(OC(=O)CN1C(=O)c2ccccc2C1=O)C(=O)c1ccccc1 (stereo not drawn) | 5.39 |
| Cc1onc(C(=O)N2C(C)CCCC2C)c1[N+](=O)[O-] (stereo not drawn) | 10.3 |
| O=C(CCC(=O)c1ccccc1)NCc1cccc(C(F)(F)F)c1 | 12 |
| CNc1nc(-c2ccc3c(c2)CCN3C(=O)c2ccccc2C)cs1 | -11 |
| O=C(CN1C(=O)c2ccccc2C1=O)Nc1ccccc1N1CCOCC1 | 12.3 |
| COc1cc(/C=N/n2cnnc2)ccc1OCC(=O)N1CCOCC1 | 16.5 |
| CCOc1ccc(C(=O)OCC(=O)NC(C)C)cc1 | 18 |
| CC(=NCCC1=CCCCC1)c1c(O)[nH]c(=O)[nH]c1=O | 7.55 |

| Structure (SMILES) | hERG current change (%, negative = inhibition) at 1uM [%] |
| --- | --- |
| CCCCNC(=O)Nc1ccon1 | 12 |
| CC(C)Oc1ccc(C(=O)OCC(=O)N2CCCc3ccccc32)cc1 | 17 |
| O=C(CCNC(=O)N1C[C@H]2C[C@@H](C1)c1cccc(=O)n1C2)Nc1ccc(F)cc1 | 19.3 |
| COc1ccccc1C1=NOC(Cn2c(NCCCO)nc3c2c(=O)n(C)c(=O)n3C)C1 (stereo not drawn) | 3.11 |
| COc1ccc(NC2=CC(=O)CC(C)(C)C2)cc1 | 8.24 |
| CCOC(=O)C(Nc1ccc2ccccc2c1)C(=O)OCC | 8.71 |
| CC(C)CC(=O)N/C(N)=N/c1nc2ccccc2o1 | 8.41 |
| CCNC(=S)NC1CC2CCCC(C1)N2Cc1ccc(C)cc1 (stereo not drawn) | -12.3 |
| Cc1ccc(/C(N)=N/OC(=O)c2ccc(Cl)cc2Cl)cc1 | 6.75 |
| CN(Cc1ccccc1)C(=O)COC(=O)C1CCN(S(=O)(=O)c2ccc(Cl)c(C(F)(F)F)c2)CC1 | 1.91 |
| COCCC(=O)N1CCC(Oc2ccc(C(=O)NCc3cccc(C)n3)cc2)CC1 | 18.1 |
| CC(NC(=O)c1cnc2ccccc2n1)c1ccccc1 (stereo not drawn) | 13.8 |
| CCC(=O)Nc1ccc(NC(=O)CSc2nnnn2CC)cc1C | 8.74 |
| O=C(NC(=S)Nc1ccc(Cl)cn1)C12CC3CC(CC(C3)C1)C2 | -4.2 |
| CC(C)(C)OC(=O)NCCCC[C@@H](C(=O)NCCCCCCCCCCC(=O)N1CCN(C(=O)OC(C)(C)C)CC1)n1cc(CCCC(=O)O)nn1 | 19.9 |
| COc1ccccc1CNC(=O)CCS(=O)(=O)c1ccc2c(c1)CCCN2C(C)=O | 1.46 |
| Cc1nc(SCC(=O)N(C)Cc2ccco2)c2c(C)c(C)sc2n1 | 8.02 |
| COc1cc(S(=O)(=O)n2cnc3ccccc32)ccc1Br | 19.5 |
| Oc1ccc(/C=N/N2CCN(Cc3ccccc3)CC2)cc1 | 14.6 |
| Cc1ccc(NC(=O)c2cccc(NC(=O)CC3SC(N4CCCCC4)=NC3=O)c2)nc1 (stereo not drawn) | 7.13 |
| N#C/C(=C\c1ccc(O)c(O)c1)C(=O)N1CCc2ccccc21 | 1.57 |
| CCNC(=S)NS(=O)(=O)c1ccc(Cl)cc1 | 9.86 |
| O=C(C1CC2C=CC1C2)N1CCN(c2ccccc2)CC1 (stereo not drawn) | 5.85 |

| Structure (SMILES) | hERG current change (%, negative = inhibition) at 1uM [%] |
| --- | --- |
| Cc1cc(C)n(C(=O)CSc2nnc(SCC(=O)n3nc(C)cc3C)s2)n1 | 11.6 |
| CCCCN(C(=O)CSc1nnc(-c2ccccc2OC)n1C)c1c(N)n(Cc2ccccc2)c(=O)[nH]c1=O | 14.5 |
| O=C(NNc1nc2cc3c(cc2s1)OCO3)c1cccc(F)c1 | 5.22 |
| Cc1sc2ncn(CC(=O)NCCN3CCOCC3)c(=O)c2c1S(=O)(=O)N1CCC(C)CC1 | 22.6 |
| O=C1OCCC1S(=O)(=O)c1ccc2ccccc2c1 (stereo not drawn) | -5.47 |
| Cc1cc2cc(CNC(=O)Nc3ccc(Cl)c(Cl)c3)ccc2n1C | 1.97 |
| O=C(O)COc1ccccc1/C=C1\C(=O)NC(=O)N(CCC2=CCCCC2)C1=O | 16.7 |
| CC(C)c1ccc(C(O)P(=O)(OC2CCCCC2)OC2CCCCC2)cc1 (stereo not drawn) | 9.04 |
| CN(Cc1ccccc1)CC1CCCN(CCc2ccccc2F)C1 (stereo not drawn) | -5.54 |
| Cn1c(=O)oc2cc(S(=O)(=O)NCCC(=O)Nc3ccc4c(c3)OCCO4)ccc21 | 6.09 |
| CCCCn1c(-c2ccc([N+](=O)[O-])cc2)n[nH]c1=S | -2.71 |
| O=C1C(=O)N(c2ccccn2)C(c2cccc(F)c2)/C1=C(/O)c1ccccc1 (stereo not drawn) | -1.65 |
| Cc1c(Cc2ccccc2)sc(N)c1C(N)=O | -8.55 |
| CCOCCCNS(=O)(=O)c1ccccc1 | 15.7 |
| Cc1ccc(NC(=O)CCS(=O)(=O)c2ccc3c(c2)NC(=O)C(C)S3)nc1 (stereo not drawn) | 11 |
| NS(=O)(=O)c1cc(C(=O)N2CCc3ccccc32)c(Cl)cc1Cl | -8.88 |
| CN(C)c1ccc(CN(C(=O)COc2ccc(F)cc2)C2CCS(=O)(=O)C2)cc1 (stereo not drawn) | -3.18 |
| O=S1(=O)N=C(N/N=C/c2ccccn2)c2ccccc21 | 3.65 |
| COC(=O)CN(C)C1CC(=O)N(c2ccc(Cl)cc2)C1=O (stereo not drawn) | -11.3 |
| O=C(Nc1cccc(F)c1)/C(=C\c1cccnc1)NC(=O)c1cccs1 | 7.48 |
| CCOc1cc(/C=C2\SC(=S)N(N3CCOCC3)C2=O)ccc1O | 5.1 |
